{"source": "PubChem BioAssay AID540317", "about": "(National Center for Advancing Translational Sciences (NCATS), 2011)", "note": "Screen size: about 390,000 compounds; about 2,200 (0.56%) were called active. The inconclusive results got no clear call from the source; some entries with a clear call stand among them for comparison. Calls follow the shape of the dose curve; as a rule, active = well fitted inhibition curve with a large enough effect; inconclusive = small, poorly fitted or top-dose-only effect; inactive = no such curve, though single readings can be large or run the other way. Potencies of inconclusive entries are doubtful fits and often do not repeat. Potency is read from the fitted curve at half-maximal effect; tags tell the direction and shape of the fitted curve.", "data": [{"target": "Chromobox protein homolog 1 (Homo sapiens) (UniProt P83916)", "sequence (P83916 whole entry, looked up)": "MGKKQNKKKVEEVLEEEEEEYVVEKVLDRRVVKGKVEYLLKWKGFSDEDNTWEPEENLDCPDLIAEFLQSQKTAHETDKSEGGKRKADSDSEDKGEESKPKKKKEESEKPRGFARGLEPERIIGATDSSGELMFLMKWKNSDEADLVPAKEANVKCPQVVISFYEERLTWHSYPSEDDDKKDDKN", "experiment": "HTS for Inhibitors of HP1-beta Chromodomain Interactions with Methylated Histone Tails; also: nearly all actives have a fitted effect of over 70% in size", "settings": "AlphaScreen HP1-beta / biotin-H3K9me3 peptide binding; series mostly up to 114 µM; activity change, negative = inhibition: at the top concentration", "from_the_text": "As our understanding of epigenetics expands, it is becoming clear that players in this field are potential targets for drug development. This area of epigenetic therapy has established applications for the treatment of cancer and neurological diseases. We have been involved in this field for a number of years and have performed high-throughput screens to identify the first small molecule inhibitors of protein methyltransferases. These methyltransferases target multiple substrates, and thus regulate many arms of an epigenetic pathway. The methylation of different substrates often generates docking sites for effector proteins that harbor binding domains (chromo, tudor, PHD, MBT and ANK repeats). It has been proposed that the binding sites generated for different proteins by these post-translational modifcations mediate downstream effects on chromatin. Consistent with this theory, di- and tri-methylation of histone H3K9 facilitates the binding of heterochromatin protein HP1. The HP1 protein harbors a chromodomain that is responsible for the methyl-dependent interaction between HP1 and lysine 9 of histone H3. HP1 was first described in flies as a heterochromatin associated protein that can regulate gene silencing. It harbors a chromodomain that binds H3K9me3. In addition, it harbors a chromoshadow domain that interacts with a large number of proteins that are involved in heterochromatin formation and gene repression. There are three highly related HP1 isoforms. All three variants are associated with pericentric heterochromatin and it is not clear whether they have specific or redundant functions. MPP8 is also involved in the repression of gene in euchromatic regions (unpublished data) and like HP1 its chromodomain binds H3K9me3. MPP8 harbors an ankyrin repeat region that is likely involved in binding and recruiting interacting proteins with transcriptional repressive function, much like the chromoshadow domain of HP1 does. We hypothesize that by inhibiting specific protein-protein interactions we will be able to develop compounds that block a single arm of an epigenetic pathway. The specificity attained by blocking a single protein-protein interaction will be far greater than that attained by blocking the enzyme that regulates one of many interactions. Low-affinity protein-protein interactions (Kd in the single- to double-digit micromolar range) such as those discussed here have been very difficult to assay by traditional techniques such as fluorescence polarization or fluorescence resonance energy transfer. We have developed a sensitive chemiluminescence-based assay (Quinn, et al. 2009), which serves as the starting point for this project. The following is a validation assay to identify lead compounds that can block methyl-dependent protein-protein interactions (specifically HP1-beta), which can be used as probes to analyze these methyl-driven interactions and perhaps even developed into targeted epigenetic therapies. NIH Chemical Genomics Center [NCGC] NIH Molecular Libraries Probe Centers Network [MLPCN] MLPCN Grant: DA031087 Assay Submitter (PI): Mark Bedford, University of Texas, Medical Anderson Cancer Center, TX\nTo each well, 2 uL of HP1-beta protein (final 50 nM) and 1 uL biotinylated histone peptide trimethylated at Lys9 [b-H3(1-18)K9me3] (final 50 nM) was added in 1x PBS buffer, pH 7.4, containing 0.01% Tween-20 using a nanoliter dispenser. Formation of a protein-peptide complex proceeded at room temperature for 30 min. A Kalypsys pin-tool was employed to transfer 23 nL of library compound solution in DMSO to each well. Aurintricarboxylic acid (ATA) was used as an intraplate control with a 12-point titration in duplicate. Following a 30 min incubation of the protein-peptide complex with compounds at room temperature, a mixture of 40 ug/mL each streptavidin-coated donor and nickel chelate acceptor AlphaScreen beads (final 10 ug/mL) was added in a 1 uL dispense for a final volume of 4 uL. […]", "values": [{"smiles": "CCc1ccccc1N1C(=O)NC(=O)/C(=C\\c2cc(C)n(C)c2C)C1=O", "Potency": "inconclusive: 31.6 µM [inhibitor, single point]"}, {"smiles": "COC(=O)C1=C(c2ccc(F)cc2F)C[C@@H]2CC[C@H]1N2C(=O)NCCO", "activity change, negative = inhibition": "inactive: 35.4%"}, {"smiles": "CCOP(=O)(CN(CC)CCNP(=O)(OCC)OCC)OCC", "activity change, negative = inhibition": "inactive: 17.1%"}, {"smiles": "Nc1c(C(=O)NCc2ccco2)c2nc3ccccc3nc2n1Cc1ccc(F)cc1", "activity change, negative = inhibition": "inactive: 5.8%"}, {"smiles": "Oc1c(Cl)c(Cl)c(Cl)c(Cl)c1Cl", "activity change, negative = inhibition": "inactive: -7.01%"}, {"smiles": "c1ccc(Cc2nn3c(Cn4cnc5ccccc54)nnc3s2)cc1", "Potency": "inconclusive: 22.4 µM [inhibitor, partial curve, poor fit]"}, {"smiles": "COC(=O)C1=C(C)NC(C)=C(C(=O)OC)C1c1ccccc1[N+](=O)[O-]", "Potency": "inconclusive: 2.82 µM [inhibitor, full curve, poor fit]"}, {"smiles": "COC(=O)C1=C(c2ccc(OC)c(OC)c2)C[C@@H]2CC[C@H]1N2C(=O)NCCNC(C)=O", "Potency": "inconclusive: 89.1 µM [inhibitor, single point]"}, {"smiles": "COCCCNC(=O)c1c(NC(=O)c2ccco2)n(Cc2ccccc2)c2nc3ccccc3nc12", "Potency": "inconclusive: 89.1 µM [inhibitor, single point]"}, {"smiles": "COc1ccc(CCNCc2ccc(OC)c(OC)c2OC)cc1", "Potency": "inconclusive: 89.1 µM [inhibitor, single point]"}, {"smiles": "COc1ccc(OC)c(N2C(=O)NC(=O)/C(=C\\c3ccc([N+](=O)[O-])s3)C2=O)c1", "Potency": "active: 25.1 µM"}, {"smiles": "COc1ccc(/C=C/C(=O)c2c(O)n(CCC3=CCCCC3)c(=O)[nH]c2=O)cc1OC", "activity change, negative = inhibition": "inactive: 89.5%"}, {"smiles": "COc1cc(/C=C2\\C(=O)NC(=O)N(c3ccc(C)cc3)C2=O)cc(OC)c1O", "activity change, negative = inhibition": "inactive: 25.5%"}, {"smiles": "O=C(C1CCN(S(=O)(=O)c2ccc(Br)s2)CC1)N1CCN(c2ccccc2)CC1", "Potency": "inconclusive: 70.8 µM [inhibitor, partial curve, poor fit]"}, {"smiles": "COc1ccccc1OCC#CCN1CCCC1", "Potency": "inconclusive: 15.8 µM [inhibitor, full curve]"}, {"smiles": "CCOc1ccc2nc(N=Nc3c(O)[nH]c(=S)[nH]c3=O)sc2c1", "Potency": "inconclusive: 50.1 µM [inhibitor, partial curve]"}, {"smiles": "COc1ccccc1CNCc1cc(OC)c(OC)cc1OC", "Potency": "inconclusive: 79.4 µM [inhibitor, single point]"}, {"smiles": "CN(C)c1ccc(CN2CCc3nc(N4CCN(c5ccccn5)CC4)ncc3C2)cc1", "Potency": "active: 28.2 µM"}, {"smiles": "COC(=O)c1ccccc1OP(=O)(c1cccc([N+](=O)[O-])c1)c1cccc([N+](=O)[O-])c1", "Potency": "inconclusive: 79.4 µM [inhibitor, single point]"}, {"smiles": "Cc1ccc(-n2c(C)cc(/C=C3/C(=O)NC(=O)N(Cc4ccco4)C3=O)c2C)cc1", "activity change, negative = inhibition": "inactive: -13.6%"}, {"smiles": "CCOc1cc2c(cc1OCC)-n1cccc1C(c1ccc(C)cc1C)NC2", "note": "(centres undefined)", "Potency": "inconclusive: 50.1 µM [inhibitor, partial curve]"}, {"smiles": "Cc1ccc(NC(=O)c2cc(-c3ccccc3)n(CCCN3CCOCC3)c2C)cc1", "Potency": "inconclusive: 70.8 µM [inhibitor, partial curve]"}, {"smiles": "COc1cccc(CNCCc2ccccc2)c1OC", "activity change, negative = inhibition": "inactive: 8.25%"}, {"smiles": "COc1ccc(CCNCc2ccncc2)cc1", "Potency": "inconclusive: 20 µM [inhibitor, partial curve, poor fit]"}, {"smiles": "Cc1ccc(N2C(=O)NC(=O)/C(=C\\c3ccoc3)C2=O)cc1", "activity change, negative = inhibition": "inactive: 16.3%"}, {"smiles": "Cc1ccnc(-n2c(C)nc3ccccc3c2=O)c1", "Potency": "inconclusive: 39.8 µM [inhibitor, single point]"}, {"smiles": "Cn1nc(-c2ccc(OCC(=O)N3CCN(Cc4ccccc4)CC3)cc2)c2ccccc2c1=O", "Potency": "inactive"}, {"smiles": "Cn1c(=O)c2c(nc(N/N=C/c3c(O)n(C4CCCCC4)c(=S)[nH]c3=O)n2C)n(C)c1=O", "Potency": "inconclusive: 79.4 µM [inhibitor, partial curve]"}, {"smiles": "Nn1c(Cc2cccc3ccccc23)n[nH]c1=S", "Potency": "inconclusive: 8.91 µM [inhibitor, full curve]"}, {"smiles": "Cc1ccc(OCC(=O)N2CCN(Cc3ccc(F)cc3)CC2)cc1", "Potency": "inconclusive: 14.1 µM [inhibitor, partial curve, poor fit]"}, {"smiles": "COc1ccccc1N1CCN(Cc2cccc(Br)c2)CC1", "Potency": "inconclusive: 14.1 µM [inhibitor, full curve, poor fit]"}, {"smiles": "Cc1c(Oc2cc(NN3CCCCC3)c([N+](=O)[O-])cc2[N+](=O)[O-])cccc1[N+](=O)[O-]", "Potency": "inconclusive: 8.91 µM [inhibitor, partial curve, poor fit]"}, {"smiles": "CCCCn1c(C)c(C(=O)OCC)c2c(CN3CCCC3)c(O)ccc21", "activity change, negative = inhibition": "inactive: 6%"}, {"smiles": "Cc1cc(-c2n[nH]c(=S)n2CC(C)C)cs1", "Potency": "inconclusive: 89.1 µM [inhibitor, partial curve, poor fit]"}, {"smiles": "c1ccc(P(c2ccccc2)c2ccccn2)cc1", "Potency": "inconclusive: 56.2 µM [inhibitor, single point]"}, {"smiles": "CN1C(=O)/C(=C/c2ccc(N3CCCCCC3)o2)C(=O)NC1=S", "activity change, negative = inhibition": "inactive: -13%"}, {"smiles": "C[C@]12CC3CC(N)(C1)C[C@@](C)(C3)C2", "activity change, negative = inhibition": "inactive: 12.8%"}, {"smiles": "O=C1C(=O)N(c2ccccc2)P(=O)(N(CCCl)CCCl)N1c1ccccc1", "activity change, negative = inhibition": "inactive: -4.41%"}, {"smiles": "O=C1NC(=S)NC(=O)C1=Cc1cccn1-c1ccc(O)cc1", "Potency": "inconclusive: 28.2 µM [inhibitor, partial curve]"}, {"smiles": "CCOc1cc(CN2CCN(C(=O)Cc3ccccc3)CC2)ccc1OC", "Potency": "inconclusive: 20 µM [inhibitor, full curve, poor fit]"}, {"smiles": "O=C1NC(=S)NC(=O)C1Cc1ccccc1", "Potency": "inconclusive: 79.4 µM [inhibitor, partial curve]"}, {"smiles": "C#CCOCCOCCOCCNc1nc(N2CCN(C(=O)CCCCCCCCCCNC(=O)[C@H]([C@@H](C)CC)n3cc(CCCCN=C(N)N)nn3)CC2)nc(N2CCN(C(=O)CCCCCCCCCCNC(=O)[C@H](CO)n3cc(CCCCCN)nn3)CC2)n1", "Potency": "inconclusive: 50.1 µM [inhibitor, partial curve, poor fit]"}, {"smiles": "Cc1nn(Cc2ccccc2)c(C)c1C(=O)NCc1ccccc1", "activity change, negative = inhibition": "inactive: 26.8%"}, {"smiles": "Cc1cc(Cc2c(O)[nH]c(=S)[nH]c2=O)ccc1OC(C)C", "Potency": "inconclusive: 20 µM [inhibitor, full curve]"}]}]}
